Test results: article PMC6919601, “Identification of Plasmodium dipeptidyl aminopeptidase allosteric inhibitors by high throughput screening” (PLoS ONE, 2019)
Screen size: about 110,000 compounds; about 230 (0.21%) showed an effect of 50% or more. This is one part of the list.

molecular target: DPAP1 (Plasmodium falciparum, UniProt Q8IIJ9); test: primary screen, percent inhibition; read by cleavage of a fluorogenic dipeptide substrate; higher = more effect of the substance; set-up: species or system P. falciparum D10 trophozoite lysates; single well
Sequence (Q8IIJ9 whole entry, looked up): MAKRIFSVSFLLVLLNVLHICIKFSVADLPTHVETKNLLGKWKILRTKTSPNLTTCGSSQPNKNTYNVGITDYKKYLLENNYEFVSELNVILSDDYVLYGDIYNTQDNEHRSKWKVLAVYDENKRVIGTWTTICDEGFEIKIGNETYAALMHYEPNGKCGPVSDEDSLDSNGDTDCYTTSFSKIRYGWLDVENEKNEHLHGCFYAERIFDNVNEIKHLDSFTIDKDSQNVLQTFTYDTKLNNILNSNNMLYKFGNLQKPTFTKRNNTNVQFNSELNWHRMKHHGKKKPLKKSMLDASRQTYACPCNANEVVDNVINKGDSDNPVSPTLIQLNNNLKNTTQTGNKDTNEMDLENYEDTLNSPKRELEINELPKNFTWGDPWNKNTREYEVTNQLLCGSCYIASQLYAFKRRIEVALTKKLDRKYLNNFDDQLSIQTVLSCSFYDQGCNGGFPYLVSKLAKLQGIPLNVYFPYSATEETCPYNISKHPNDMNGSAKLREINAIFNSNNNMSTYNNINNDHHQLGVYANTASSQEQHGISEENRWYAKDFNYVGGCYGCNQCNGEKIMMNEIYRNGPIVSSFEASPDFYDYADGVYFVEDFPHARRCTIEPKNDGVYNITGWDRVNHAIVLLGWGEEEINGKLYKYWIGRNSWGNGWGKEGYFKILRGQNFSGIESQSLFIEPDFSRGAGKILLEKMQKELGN
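Note: 30 min substrate incubation versus DMSO and 10 µM JCP410 controls.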

First: O=C(O)C1CC=CCC1C(=O)Nc1ccc(N2CCN(c3ccc(Cl)cc3)CC2)cc1 (centres unmarked)
Second: Cc1ccccc1OCC(=O)Nc1ccc(S(=O)(=O)N2CCc3ccccc32)cc1
The “% Inhibition @ 10 uM” value of the first is lower: -8.41% for the first, -0.511% for the second.

First: CCSc1nc2ccccc2c(=O)n1-c1ccccc1
Second: Cc1nc2ccccc2c(O)c1Cc1c(C)nc2ccccc2c1O
The “% Inhibition @ 10 uM” value of the first is higher: -3.37% for the first, -6.71% for the second.

Compared with CC(C)C[C@H](NC(=O)C1CCCCC1)C(=O)NCC#N, CC(C)OCCCNC(=O)c1cc(-c2ccccc2)c(N2CCCCC2)s1 is higher in “% Inhibition @ 10 uM” value: -4.72% for the first, -2.1% for the second.

First: CCC1CCCCN1C(=O)CS(=O)(=O)Cc1nc(-c2ccc(C)cc2)oc1C (centres unmarked)
Second: Cc1ccccc1-c1nnc(SCC(=O)N2CCC(C)CC2)o1
The “% Inhibition @ 10 uM” value of the first is lower: -1.89% for the first, 2.97% for the second.

First: CCOC(=O)N1CCc2c(sc3nc(SCC(N)=O)n(-c4ccc(Cl)cc4)c(=O)c23)C1
Second: CCOC(=O)N1CCN(Cc2nnc(-c3ccc4c(c3)OCO4)o2)CC1
The “% Inhibition @ 10 uM” value of the first is higher: 3.65% for the first, 3% for the second.

First: O=C(NCCO)c1ccc2[nH]c3c(c2c1)CCCC3
Second: COc1ccc(/C=C/C(=O)Nc2c3c(nc4c2CCC4)CCCC3)cc1OC
The “% Inhibition @ 10 uM” value of the first is lower: -1.33% for the first, 1.91% for the second.

First: CCc1ccc(-c2csc(NC(=O)c3ccco3)n2)cc1
Second: O=C(NCCc1ccccc1)c1cc(-c2ccco2)on1
The “% Inhibition @ 10 uM” value of the first is higher: 1.35% for the first, -5.77% for the second.

Compared with c1cncc(CN2CCN(C3CC4CCC3C4)CC2)c1 (centres unmarked), CCOC(=O)CN1CCN(c2cccc(C)c2C)CC1 is higher in “% Inhibition @ 10 uM” value: -0.0494% for the first, 3.01% for the second.

Going from CC1=C(C(=O)Nc2cc(C)ccn2)C(c2ccc(Cl)cc2)C2=C(O)CCCC2=N1 (centres unmarked) to CSc1nc(O)c2c(n1)N=C1CCCC(O)=C1C2c1ccc(C)cc1 (centres unmarked), the “% Inhibition @ 10 uM” value falls from 2.7% to -2.04%.

First: Cc1ccc(C(c2ccccc2)C2C(=O)c3ccccc3C2=O)c(C)c1 (centres unmarked)
Second: COc1ccccc1NC1=C(Cl)C(=O)N(c2ccc(C)cc2)C1=O
The “% Inhibition @ 10 uM” value of the first is higher: 15.1% for the first, 1.03% for the second.

First: COc1ccc(S(=O)(=O)c2c(SC)n[nH]c2N)cc1
Second: CCOc1ccc(CNC(=O)CCCn2ccc3cc(S(=O)(=O)N4CCCC4)ccc32)cc1
The “% Inhibition @ 10 uM” value of the first is lower: 3.99% for the first, 9.49% for the second.

First: Cc1nc2ccccc2c2oc(C(=O)N3CCc4ccccc4C3)cc12
Second: Brc1ccccc1Cn1cnc2ccccc21
The “% Inhibition @ 10 uM” value of the first is lower: -3.45% for the first, 1.8% for the second.

Compared with Cc1ccc2nc(NC(=O)C(NS(=O)(=O)c3cccc4nsnc34)C(C)C)sc2c1 (centres unmarked), O=C(CCCC(=O)c1ccccc1)Nc1nc2ccc(Br)cc2s1 is lower in “% Inhibition @ 10 uM” value: -0.465% for the first, -5.03% for the second.

Going from CCCN1CC2=C(N=C(S)NC2c2cccc3ccccc23)/C(=C/c2cccc3ccccc23)C1 (centres unmarked) to COCCNC(=O)c1ccc(CSc2nc3ccncc3n2Cc2ccccc2F)cc1, the “% Inhibition @ 10 uM” value rises from -0.415% to -0.12%.

Compared with O=[N+]([O-])c1cccc(-c2nnnn2-c2ccccc2)c1, COc1cccc(/C=C(\C#N)c2nc(-c3ccccc3)cs2)c1 is higher in “% Inhibition @ 10 uM” value: -5.73% for the first, 1.83% for the second.

First: CC(C)(C)C(=O)NCCNC(=O)c1nonc1N
Second: CCOCCCNS(=O)(=O)c1c(C)nc2scc(C)n2c1=O
The “% Inhibition @ 10 uM” value of the first is lower: -3.53% for the first, -2.7% for the second.

First: CCOc1ccc2c(=O)c(Oc3ccccc3)c(C(F)(F)F)oc2c1
Second: CCOC(=O)c1c(C)n(C)c2ccc(OCC(O)CN3C(=O)c4ccccc4S3(=O)=O)cc12 (centres unmarked)
The “% Inhibition @ 10 uM” value of the first is lower: -4.21% for the first, -1.33% for the second.

First: O=C(NCCc1ccc(Cl)cc1)C1(NS(=O)(=O)c2cccc3cccnc23)CCCCC1
Second: Cc1nn(-c2ccccc2)c(Cl)c1C(=O)NC1CCCCC1
The “% Inhibition @ 10 uM” value of the first is lower: -6.07% for the first, -0.85% for the second.

Compared with COc1ccc(OCCCN2CCOCC2)cc1, O=C(CN1C(=O)CSc2ncccc21)NCCN1CCOCC1 is lower in “% Inhibition @ 10 uM” value: 2.22% for the first, 1.03% for the second.

Going from Cc1nnc2c3c4c(sc3ncn12)CCC4 to CCc1nc2sc(C(N)=O)c(N)c2cc1C, the “% Inhibition @ 10 uM” value rises from -2.32% to 1.84%.

Going from O=C(Cn1nc(C(F)(F)F)cc1C1CC1)Nc1ccc(Cl)cc1 to COC(=O)C1=C(O)/C(=C\c2cccc(Cl)c2)N=C1C, the “% Inhibition @ 10 uM” value rises from 1.57% to 2.05%.

Going from Cc1ccc(S(=O)(=O)Nc2ccc(S(=O)(=O)Nc3cc(C)cc(C)c3)cc2)cc1 to Cc1c(Cl)cccc1-c1ccc(C=C2C(=O)OC(C)(C)OC2=O)o1, the “% Inhibition @ 10 uM” value falls from -1.21% to -1.25%.

Going from c1ccc(-c2noc(C34CC5CC(CC(C5)C3)C4)n2)cc1 to CC1=C(C(=O)OCC2CCCO2)C(c2ccccc2C)CC(=O)N1 (centres unmarked), the “% Inhibition @ 10 uM” value rises from -1.32% to -1%.

Compared with COCCN1CN(Cc2ccco2)CC2=C1CC(c1ccccc1)CC2=O (centres unmarked), C=C1N(C)C(=O)OC1(C)Cc1ccccc1 (centres unmarked) is lower in “% Inhibition @ 10 uM” value: 3.54% for the first, 1.11% for the second.

Going from CCCCNC(=O)CCN1N=C(c2ccccc2)CCC1=O to Fc1ccc(-n2cnnn2)cc1, the “% Inhibition @ 10 uM” value falls from 3.93% to 3.27%.
